# This is one part of the list. Sequences were assembled here from the parent chain. Values near 0.05 are background.
# B1: TEV protease; numbered along this chain (parent)
# chain: MGESLFKGPRDYNPISSSICHLTNESDGHTTSLYGIGFGPFIITNKHLFRRNNGTLVVQSLHGVFKVKDTTTLQQHLVDGRDMIIIRMPKDFPPFPQKLKFREPQREERICLVTTNFQTKSMSSMVSDTSCTFPSGDGIFWKHWIQTKDGQCGSPLVSTRDGFIVGIHSASNFTNTNNYFTSVPKNFMELLTNQEAQQWVSGWRLNADSVLWGGHKVFMVKPEEPFQPVKEATQL
# Variants of: B1
# Assay: raw area under fraction-flipped curve 0-4 h after induction (AUC4h, not background-subtracted), DNA-recorder readout of cleavage of the substrate (dimensionless); higher = more cleavage of the substrate by the protease variant
# Details: temperature: 34 °C; time window: 0-4 h after rhamnose induction
# Protocol: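 In vivo DNA recorder in E. coli TOP10(DE3) ΔrhaA at 34 °C. Each TEVp single-site mutant (parent TEVp 0) is paired with a single-site variant of the 7-mer TEVs (canonical ENLYFQ|S). The substrate sits between flexible linkers in a Bxb1-sfGFP-TEVs-SsrA fusion, so cleavage stabilises Bxb1 and speeds flipping of a recombination array, read by NGS. The value is the raw area under the fraction-flipped curve over 0-4 h after rhamnose induction (AUC4h), with ≥20 reads per time point. It is not background-subtracted; inactive controls average about 0.047.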
# 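Also: Bxb1 expression induced with 0.2% (w/v) L-rhamnose at OD600 near 0.5, cultures sampled hourly, flipped fraction per protease–substrate barcode pair counted by paired-end Illumina sequencing.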
Variant,area with substrate ENLYAQS,area with substrate ENLYDQS,area with substrate ENLYEQS,area with substrate ENLYGQS,area with substrate ENLYHQS,area with substrate ENLYKQS,area with substrate ENLYLQS,area with substrate ENLYMQS,area with substrate ENLYNQS,area with substrate ENLYPQS,area with substrate ENLYQQS,area with substrate ENLYRQS,area with substrate ENLYSQS,area with substrate ENLYVQS,area with substrate ENLYWQS,area with substrate ENLYYQS,area with substrate ENLYCQS,area with substrate ENLYIQS,area with substrate ENLYTQS
MGESLFKGPRDYNPISSSICHLTNESDGHTTSLYGIGFGPFIITNKHLFRRNNGTLVVQSLHGVFKVKDTTTLQQWLVDGRDMIIIRMPKDFPPFPQKLKFREPQREERICLVTTNFQTKSMSSMVSDTSCTFPSGDGIFWKHWIQTKDGQCGSPLVSTRDGFIVGIHSASNFTNTNNYFTSVPKNFMELLTNQEAQQWVSGWRLNADSVLWGGHKVFMVKPEEPFQPVKEATQL [H76W],0.0648,0.0541,0.0664,0.0684,0.0594,0.0706,0.0712,0.0751,0.0567,0.0627,0.0601,0.047,0.0455,0.0941,0.0727,0.0656,–,–,–
MGESLFKGPRDYNPISSSICHLTNESDGHTTSLYGIGFGPFIITNKHLFRRNNGTLVVQSLHGVFKVKDTTTLQQHLVDGRDMIIIRMPKDFPPFPQKLKFREPQREERICLVTTNFQTKSMSSMVSDTSCTFPSGDGIFWKHWIQTKDGQCGSPLVSTRDRFIVGIHSASNFTNTNNYFTSVPKNFMELLTNQEAQQWVSGWRLNADSVLWGGHKVFMVKPEEPFQPVKEATQL [G162R],0.0763,–,0.0603,0.0537,0.0521,0.0436,0.0751,0.0749,0.0597,0.0675,0.041,0.0609,–,0.0727,–,0.0544,0.0745,0.109,–
MGESLFKGPRDYNPISSSICHLTNESDGHTTSLYGIGFGPFIITNKHLFRRNNGTLVVQSLHGVFKVKDTTTLQQHLVDGRDMIIIRMPKDFPPFPQKLKFREPQREERICLVTTNFQTKSMSSMVSDTSCTFPSGDGIFWKHWIQTKTGQCGSPLVSTRDGFIVGIHSASNFTNTNNYFTSVPKNFMELLTNQEAQQWVSGWRLNADSVLWGGHKVFMVKPEEPFQPVKEATQL [D149T],0.0671,0.0616,0.0661,0.0707,0.065,0.0664,0.0685,0.0687,0.0652,0.0624,0.066,0.0614,0.0732,0.103,–,0.067,0.0782,0.0587,0.0742
MGESLFKGPRDYNPISSSICHLTNESDGHTTSLYGIGFGPFIITNKHLFRRNNGTLVVQSLHGVFKVKDTTTLQQHLVFGRDMIIIRMPKDFPPFPQKLKFREPQREERICLVTTNFQTKSMSSMVSDTSCTFPSGDGIFWKHWIQTKDGQCGSPLVSTRDGFIVGIHSASNFTNTNNYFTSVPKNFMELLTNQEAQQWVSGWRLNADSVLWGGHKVFMVKPEEPFQPVKEATQL [D79F],0.0761,0.0699,–,–,–,–,–,0.0927,–,0.069,–,0.0765,0.0517,0.0828,0.0784,0.0748,–,–,0.0752
MGESLFKGPRDYNPISSSICHLTNESDGHTTSLYGIGFGPFIITNKHLFRRNNGTLVVQSLHGVFKVKDTTTLQQHLVDGRDMIIIHMPKDFPPFPQKLKFREPQREERICLVTTNFQTKSMSSMVSDTSCTFPSGDGIFWKHWIQTKDGQCGSPLVSTRDGFIVGIHSASNFTNTNNYFTSVPKNFMELLTNQEAQQWVSGWRLNADSVLWGGHKVFMVKPEEPFQPVKEATQL [R87H],0.079,0.0356,0.0805,0.0596,0.0859,0.0478,–,0.0755,0.0652,0.0644,–,–,0.0703,0.103,0.0899,0.0706,0.0927,–,–
MGESLFKGPRDYNPISSSICHLTNESDGHTTSLYGIGFGPFIITNKHLFRRNNGTLVVQSLHGVFKVKDTTTLQQHLVDGRDMIIIRMPKDFPPFPQKLKFREPQREERICLVTTNFQTKSMSSMVSDTSCTFPSGDGIFWKHWIQTKDGQCGSPRVSTRDGFIVGIHSASNFTNTNNYFTSVPKNFMELLTNQEAQQWVSGWRLNADSVLWGGHKVFMVKPEEPFQPVKEATQL [L156R],0.049,–,0.0608,0.0463,0.0489,0.0325,–,0.0523,0.0307,0.0447,0,0.0379,0.0463,–,0.0502,–,–,0.0444,0.0386
MGESLFKGPDDYNPISSSICHLTNESDGHTTSLYGIGFGPFIITNKHLFRRNNGTLVVQSLHGVFKVKDTTTLQQHLVDGRDMIIIRMPKDFPPFPQKLKFREPQREERICLVTTNFQTKSMSSMVSDTSCTFPSGDGIFWKHWIQTKDGQCGSPLVSTRDGFIVGIHSASNFTNTNNYFTSVPKNFMELLTNQEAQQWVSGWRLNADSVLWGGHKVFMVKPEEPFQPVKEATQL [R10D],0.0535,0.0639,0.0558,0.0566,0.0668,0.0749,0.0934,0.101,0.0651,0.0721,0.0633,0.0639,0.0678,0.0859,0.0737,–,–,0.151,–
MGESLFKGPRDYNPISSSICHLTNESDGHTTSLYGIGFGPFIITNKHLFRRNNGTLVVQSLHGVFKVKDTTTLQQHLVDGRDMIIIRMPKDFPPFPQKLKFREPQREERICLVTTNFQTKSMSSMVSDTSCTFPSGDGIFWKHWIQTKDGQCGSPLVSTRDGFIVGIHSASNFTNTNNYFTSVPKNDMELLTNQEAQQWVSGWRLNADSVLWGGHKVFMVKPEEPFQPVKEATQL [F187D],0.0512,–,–,–,0.0602,0.0608,–,0.0765,–,0.0551,–,0.0435,0.0468,–,0.0506,0.0707,0.0886,–,–
MGESLFKGPRDYNPISSSICHLTNESDGHTTSLYGIGFGPFIITNKHLFRRNNGTLVVQSLHGVFKVKDTTTLQQHLVDGRDMIIIRMPKDFPPFPQKLKFREPQREERICLVTTNFQTKIMSSMVSDTSCTFPSGDGIFWKHWIQTKDGQCGSPLVSTRDGFIVGIHSASNFTNTNNYFTSVPKNFMELLTNQEAQQWVSGWRLNADSVLWGGHKVFMVKPEEPFQPVKEATQL [S121I],0.0891,0.0615,0.101,0.0736,0.062,0.07,–,0.0728,0.0712,0.0717,–,0.0517,0.0726,0.149,0.0786,0.0544,–,0.117,0.0642

# Reference: the supplement of paper PMC12217912
